Laboratory results reported in PMC12136788.
The list shows a part of the results.

T1: UNK ZnF1-3 (human, UniProt Q9C0B0 31-174)
T1 sequence: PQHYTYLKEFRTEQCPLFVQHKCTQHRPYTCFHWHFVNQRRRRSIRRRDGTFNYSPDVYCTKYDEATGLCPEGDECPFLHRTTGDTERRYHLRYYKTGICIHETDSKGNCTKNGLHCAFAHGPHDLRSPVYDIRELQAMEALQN

B1: chr11:105132459:105132460:+_ENSMUSG00000020694_ENSMUST00000015107|mus_hu|motif|central (ssRNA)
RNA: GGGAGUUCUACAGUCCGACGAUCGAUCUUCGAAAGACCAAAAUCUGUAAUUUUUAUCUCUCCACACGCUGUACCAUUUACGGAAAGAAUAUUACCUGGUUUGAGGUCAUAGUGUAUGAUGGGAGGUUUUAUUUCAUUUAAGUACAACAGAGGAUUGAGCAUCA
B2: chr2:202488911:202488912:-_ENSG00000155755_ENST00000286196|hu_mus|hu_hu_hu_mus_False|28_108 (ssRNA)
RNA: GGGAGUUCUACAGUCCGACGAUCAUUUAACAUUUUUUCAUAAUCUCCAGUAGCAUUUCAGCAUUAUGUAACAAAAGCUCAAUUGUAAAUACAUGUAUCUUAUAAAAAUAAAAAUACAAACACGAGUGGGGAGCGCAGGCGCCACAACAGAGGAUUGAGCAUCA
B3: chr6:29525140:29525141:-_ENSMUSG00000012535_ENSMUST00000012679|mus_mus|motif|central (ssRNA)
RNA: GGGAGUUCUACAGUCCGACGAUCAUUGGUUUUGUAUAAAUGUUCUCCUAGUCGGUACCAAAAGUUAAAGGAAAUUUCGGCGGCCUCAUACUGAGGGUGGCCUGCACAGAUAAGAAGCAAUUCCAAAGUUCGAAGAUCUCCCAGCAACAGAGGAUUGAGCAUCA
B4: chr18:56819859:56819860:+_ENSG00000166562_ENST00000588875|hu_mus|hu_hu_hu_mus_True|78_108 (ssRNA)
RNA: GGGAGUUCUACAGUCCGACGAUCAACUUUGAUUACUCUGUGAACUAUCGGAAUGUCUCGUCCUUCAACCUUAAAAACAACUAUUUCACCAGCUCUGAUGGGGUCCUCCCGGAAAUUCGUGAGGAACAGCAGAUCUCCUCUGUGCAACAGAGGAUUGAGCAUCA
B5: chrX:21990627:21990628:+_ENSG00000102172_ENST00000404933|hu_mus|FALSE|FALSE (ssRNA)
RNA: GGGAGUUCUACAGUCCGACGAUCCACCCGCCCAGUACUGUCUUGACUCAAUUCUUUCAUUUUUUCUUCUAUUUUGUUCAAAAGGCUGUCAGUUUCUUGUUUGCCUUGCACAUCACUGUCGUAACUCUGAAGGUCCAGCAACACCAACAGAGGAUUGAGCAUCA
B6: chr14:78183846:78183847:+_ENSG00000119705_ENST00000557342|hu_hu|hu_hu_hu_mus_False|18_68 (ssRNA)
RNA: GGGAGUUCUACAGUCCGACGAUCUCUCAGAAAUCUUUCUUCAUCAGAUGUUUGAGCUCCGUGCAAAAGUUUUGGCCUUUGAGCUUGAACGUGGAUCUAUGGGAGGGAAAGCACUGUAUUUUCCUGUAAUUUUUUUUUUAAAGACAACAGAGGAUUGAGCAUCA
B7: chr2:104630212:104630213:-_ENSMUSG00000074994_ENSMUST00000117237|mus_mus|motif|central (ssRNA)
RNA: GGGAGUUCUACAGUCCGACGAUCUGUAGUGUUAAAAGAUGAAUCUUGAAGCACCAAAGGUGAGGUGGUCGCAAAGUUUCGGUUGCGGAAGGUAGAUGAAUGCUGAUAGGCAGACAAAGUUGGUGGUGGAAGUGUCCCAGUGGUCAACAGAGGAUUGAGCAUCA
B8: chr6:41757443:41757444:+_ENSG00000214736_ENST00000398881|hu_mus|hu_hu_hu_mus_False|1_98 (ssRNA)
RNA: GGGAGUUCUACAGUCCGACGAUCGAACCGUGCAGAGACCAGAGAAUAGCCGACACUGGGGGAUGGGGGGGCAGUGGGGGGGGGUUCAGGCAAGGAGAGGGAGUCAACUUCAGCUGCCACUCAGGUAGGAUCUUGUGGGGCACACAACAGAGGAUUGAGCAUCA
B9: chr5:24093644:24093645:+_ENSMUSG00000038181_ENSMUST00000088295|mus_mus|motif|central (ssRNA)
RNA: GGGAGUUCUACAGUCCGACGAUCUUCCCAACCCUAUGUCUGGUCUUCAGUGGCCAUGGUGCUGAUACCCUCAGUAAAAUACGGAUGUCUAUGUGAGCAAUGCCACUCCCUACGGGGAUUGCAGUCUGUAGUCCAGGAAAAAGACAACAGAGGAUUGAGCAUCA
B10: chr2:47387770:47387771:-_ENSG00000143933_ENST00000272298|hu_mus|FALSE|FALSE (ssRNA)
RNA: GGGAGUUCUACAGUCCGACGAUCAAGGUUUAAGGACAAUGACAGUAAGAUAAGGGAAGAAAACAUGGAGGAAUGAAGUCCUAAUUACUAUACAUGCAUAUUUUUUGACAGUAGGGGGGGGGAACCUUUUACAGAUAAGUUACACAACAGAGGAUUGAGCAUCA
B11: chr11:100882373:100882374:+_ENSMUSG00000019302_ENSMUST00000044721|mus_mus|mus_mus_mus_hu_True|48_108 (ssRNA)
RNA: GGGAGUUCUACAGUCCGACGAUCUUCCUGGUUAGUGUUGAUUUCCUUCAGUUCAUUUUCAAUCUUCUCAAAAUUGGCCUCUAAGUCGAUCAUGUCCCGGGGGAAGGGAACCUCUGGGUUUUCACCGGUGUCCAUAAUCGGAAUCAACAGAGGAUUGAGCAUCA
B12: chrX:71549762:71549763:+_ENSMUSG00000019087_ENSMUST00000019231|mus_mus|mus_mus_mus_hu_False|68_78 (ssRNA)
RNA: GGGAGUUCUACAGUCCGACGAUCAAACCCGUGUACUUCUUAUUGUUAGCACAACAUUCCCCCCCAAAAAACAUAACAGCCAAGCAGGACAGACAGUUAAGUAGUACUUCCACACUCCCAAACUCAGGGAGCCCUAUAACCUUACAACAGAGGAUUGAGCAUCA
B13: chr11:87793471:87793472:-_ENSMUSG00000020483_ENSMUST00000020775|mus_mus|mus_mus_mus_hu_False|68_68 (ssRNA)
RNA: GGGAGUUCUACAGUCCGACGAUCUGGACUUGAAAAUAAAAGAAUAAGCUGGAUCCCCCACCCCCCCACAGUGUCAACCCUACACGAGAGUUUUGAAGGCGACUCAUGAAAAUCAGCAGCUCAAACGGCAAUGACCACCCCACCCAACAGAGGAUUGAGCAUCA
B14: chr13:28239862:28239863:+_ENSG00000186184_ENST00000399697|hu_mus|FALSE|FALSE (ssRNA)
RNA: GGGAGUUCUACAGUCCGACGAUCCUCUUUAUGGGAGGGCAGUGUGUUCUUAAUUGUGUUAAUUAGGAAUCUUUUAUUUGUACCAGCAAGAGGACACUUCAUCCAGCCCAUCGGCCCCAUUGUCUCCGCUCUGGUUUUCCCACGCAACAGAGGAUUGAGCAUCA
B15: chr1:235599081:235599082:+_ENSG00000116957_ENST00000366601|hu_mus|FALSE|FALSE (ssRNA)
RNA: GGGAGUUCUACAGUCCGACGAUCAGAUCUGCUAUAAGGCUCAGCUGGCUUUCAUCAAUUGAUGGGUUGGAGGAAAGGUCUAGUAACCUCAUUUUCUGCAGGACAUUCACUGGCCUUUCAGAAAUGGAAAUAUUGUUAGACUUGCAACAGAGGAUUGAGCAUCA
B16: chr4:115894766:115894767:+_ENSMUSG00000028698_ENSMUST00000030464|mus_hu|mus_mus_mus_hu_True|48_78 (ssRNA)
RNA: GGGAGUUCUACAGUCCGACGAUCUUCCACACGGAAAUGUACUUCGGGUUUUCCAACGCCAGUACAAAGUCCGGCCAAACUACCCGAUGAGGACAAGCCCCCUCUCUCCUACAGAACACAACAAAAUGCCCCCGAACUUUCAAGCAACAGAGGAUUGAGCAUCA
B17: chr7:54825262:54825263:-_ENSG00000132432_ENST00000352861|hu_hu|hu_hu_hu_mus_False|1_58 (ssRNA)
RNA: GGGAGUUCUACAGUCCGACGAUCCUGCCGGCUGGGCUCCACAAACUGCAUUACCUGAUCCAUGUUUGUUGGAUGGCACACCUAAAACGUAGAGACACGUAGCUCAGGAGAGAACCGAGCCCAACGGAACCGGAAGCGGAAUCCCAACAGAGGAUUGAGCAUCA
B18: 97800885_97814381_1043_CDS_ENSG00000164715_ENST00000297293|human|control|control (ssRNA)
RNA: GGGAGUUCUACAGUCCGACGAUCAUUCCGCAGGGCUAAAUCACUGUGCAGGAAGUGCAGCUUGUGCAUGGCGGCCAGCCCCGCGGCGACCUCGCACGCCAUCCUCUGCAGCAGCAUGGUCUGUGAGUCCCCCCGCAUGUGCUCCAACAGAGGAUUGAGCAUCA
B19: chr19:40827925:40827926:-_ENSG00000160392_ENST00000392035|hu_mus|FALSE|FALSE (ssRNA)
RNA: GGGAGUUCUACAGUCCGACGAUCGCUGCUCCCCCGGGGCCCUACCAGAGUCCUUUUAAUGGCGAACUUGACCUCAGCUGAGGACUUACUCUUGGUGCUUGUGACCUGGCUGUCCUGUGCCUCGGACACAACGGCAGCCUUGCCCAACAGAGGAUUGAGCAUCA
B20: chr4:140556289:140556290:+_ENSMUSG00000036622_ENSMUST00000037055|mus_mus|mus_mus_mus_hu_False|68_78 (ssRNA)
RNA: GGGAGUUCUACAGUCCGACGAUCGAUGGAGCUCACCAGGCCCCCUUUUGCCGUGCAGAACCCUGUCCGAGUCACCACUGCCAGGACGUGCGGUCCCACAUAGGCCCGGGCCUGCAAGAUGAGGGUCCCGCAGAAGAGUGUGUGCAACAGAGGAUUGAGCAUCA
B21: chr7:71034301:71034302:-_ENSMUSG00000052040_ENSMUST00000063694|mus_hu|FALSE|FALSE (ssRNA)
RNA: GGGAGUUCUACAGUCCGACGAUCGGACUUUGGAAUAAAAUUCCUGAACCUGGAAUGUGAAUUCCUGAGACAUAAAAUGUAUUCAGAGUGUGGCUUUCUCUGCCUCACACGAAAACAACUUUGGGAGGGACCUCACUUUGGAACCAACAGAGGAUUGAGCAUCA
B22: chr10:127182121:127182122:+_ENSMUSG00000044617_ENSMUST00000054287|mus_mus|FALSE|FALSE (ssRNA)
RNA: GGGAGUUCUACAGUCCGACGAUCAAAGAGAUGCUGGGUAGUAUGUAUACCAAACAAAACAAAAAAUAAUAAUAAAAUAAAUAUUAAUGUCUAGAAAGGCUUUGUGAGUUAAUUAAAACCACUUGCUUAUGAAACAGCCCAGAGCAACAGAGGAUUGAGCAUCA

Target: T1, UNK ZnF1-3
Experiment: nsRBNS (natural sequence RNA bind-n-seq); RBNS binding buffer (assumed for nsRBNS): 25 mM Tris pH 7.5, 150 mM KCl, 3 mM MgCl2, 0.01% Triton X-100, 500 ug/ml BSA, 20 U/ml SUPERase-In, 4 C; UNK is unkempt and MSI1 is Musashi-1; names of the RNAs are library labels; protein concentration not given here; high values mean tight binding

Row | Binder | binding signal
1 | B1 | 0.993 enrichment R
2 | B2 | 0.979 enrichment R
3 | B3 | 0.811 enrichment R
4 | B4 | 0.73 enrichment R
5 | B5 | 0.728 enrichment R
6 | B6 | 1.12 enrichment R
7 | B7 | 1.57 enrichment R
8 | B8 | 2.73 enrichment R
9 | B9 | 0.964 enrichment R
10 | B10 | 2.35 enrichment R
11 | B11 | 0.74 enrichment R
12 | B12 | 1.72 enrichment R
13 | B13 | 1.84 enrichment R
14 | B14 | 0.79 enrichment R
15 | B15 | 1.36 enrichment R
16 | B16 | 0.969 enrichment R
17 | B17 | 0.966 enrichment R
18 | B18 | 0.557 enrichment R
19 | B19 | 0.713 enrichment R
20 | B20 | 1.3 enrichment R
21 | B21 | 0.938 enrichment R
22 | B22 | 1.71 enrichment R
